Assay results as given in PubChem BioAssay AID2675 (National Center for Advancing Translational Sciences (NCATS), 2010).
The whole screen tested about 280,000 compounds, of which about 100 (0.036%) were called active. The inconclusive results got no clear call from the source; some entries with a clear call stand among them for comparison. Calls come from the whole dose curve; as a rule, active = well fitted inhibition curve with a large enough effect in the signal ratio, with a control signal flat (not every such curve was filed as active); inconclusive = small, poorly fitted or top-dose-only effect, or effect the other way, or a change in a side signal; inactive = no such curve, though single readings can be large or run the other way; the % refers to the signal ratio. A potency beside an inconclusive call is a rough fit, not a confirmed value. “Side channel” marks fits to a control or component signal instead of the main read-out.

Target: Muscleblind-like protein 1 (Homo sapiens) (UniProt Q9NR56)
Chain of UniProt Q9NR56 (Q9NR56 whole entry, looked up): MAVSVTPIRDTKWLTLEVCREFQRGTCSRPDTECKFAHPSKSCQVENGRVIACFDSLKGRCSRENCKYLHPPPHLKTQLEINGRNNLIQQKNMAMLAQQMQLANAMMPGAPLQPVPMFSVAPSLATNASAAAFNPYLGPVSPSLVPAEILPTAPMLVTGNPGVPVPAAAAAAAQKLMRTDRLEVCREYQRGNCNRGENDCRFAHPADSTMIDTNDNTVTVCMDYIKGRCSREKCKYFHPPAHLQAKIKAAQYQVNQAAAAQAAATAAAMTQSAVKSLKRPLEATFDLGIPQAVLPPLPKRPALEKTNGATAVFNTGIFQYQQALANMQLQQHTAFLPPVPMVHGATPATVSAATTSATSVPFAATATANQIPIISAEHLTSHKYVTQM
Test: qHTS Assay for Inhibitors of MBNL1-poly(CUG) RNA binding
Settings: TR-FRET MBNL1-His/biotin-(CUG)12 binding, 665/545 ratio; activity change, negative = inhibition: at 57.5 µM (top of the series)
Procedure, shortened: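 Compounds (final 92 nM to 58 uM) are added to His-tagged MBNL1 and biotin-(CUG)12, then terbium anti-His antibody and streptavidin-XL665 (5 nM final). After 60 min at room temperature, the 665/545 nm ratio is read.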
% is set by controls: 0 for no effect and ±100 for the full control effect; potency is the fitted concentration of half-maximal effect; tags give direction and shape of the fitted curve or compound fluorescence and quenching.

Structure (SMILES)	Potency	activity change, negative = inhibition
CCN(CC)c1ccc2cc(C(N)=O)c(=N)oc2c1	inconclusive: 17.8 µM [quencher, side channel, partial curve]	
O=[N+]([O-])c1ccccc1Oc1ncccc1[N+](=O)[O-]	inconclusive: 25.1 µM [quencher, side channel, partial curve]	
Cc1ccc(C(=O)N/C(=C\c2cccc([N+](=O)[O-])c2)C(=O)NC(Cc2ccccc2)C(=O)O)cc1 (stereo unspecified)	inconclusive: 28.2 µM [quencher, side channel, single point]	
CO/N=C/C(C#N)=C/c1ccc(OC)cc1	inconclusive: 15.8 µM [quencher, side channel, partial curve]	
Cc1ccc(Oc2ncnc(N)c2[N+](=O)[O-])cc1	inconclusive: 10 µM [quencher, partial curve]	
COc1cc(/C=C2/NC(=O)N(Cc3ccccc3F)C2=O)ccc1O	inconclusive: 15.8 µM [quencher, partial curve]	
O=C(Nc1cccc([N+](=O)[O-])c1)c1ccn[nH]1	inconclusive: 11.2 µM [quencher, side channel, partial curve]	
Cc1ccc(C)c(S(=O)(=O)/N=C2\C=C(NS(=O)(=O)c3ccccc3)C(=O)c3ccccc32)c1	inconclusive: 11.2 µM [quencher, side channel, partial curve]	
CCc1n[nH]c(=S)n1/N=C/c1cc(Br)c(OC)cc1OC	inconclusive: 5.62 µM [quencher, side channel, full curve, poor fit]	
COc1ccccc1N1C(=N)S/C(=C\c2ccc(-c3ccccc3C(=O)O)o2)C1=O	inconclusive: 20 µM [quencher, side channel, partial curve]	
Cc1ccc2nc(Nc3nc(C)cc(C(F)(F)F)n3)nc(C)c2c1	inactive	
CC(C)(C)NC(=O)COC(=O)c1ccc2c(c1)C(=O)N(Cc1ccco1)C2=O	inconclusive: 10 µM [quencher, side channel, partial curve]	
COc1ccc(NC(=O)/C(Cl)=C(/Cl)S(=O)Cc2ccccc2)cn1 (stereo unspecified)	inactive	
CCN(CC)c1cc2nonc2c2nonc12	inconclusive: 20 µM [quencher, side channel, single point]	
COc1cc(C(=S)N2CCCC2)ccc1OC(=O)c1ccc(Cl)cc1[N+](=O)[O-]	inconclusive: 15.8 µM [quencher, side channel, partial curve]	
CCNc1ccc(S(=O)(=O)NCCN(C)C)cc1[N+](=O)[O-]	inconclusive: 17.8 µM [quencher, side channel, partial curve]	
COCCNc1nc(CSc2ccccc2)nc2sc(C)c(C)c12	inactive	
COc1ccc(C(=S)N2CCOCC2)cc1OC(=O)c1ccccc1	inactive	
CCCCC(=O)N/N=C/c1sccc1C	inconclusive: 22.4 µM [quencher, side channel, single point]	
COc1ccc(Nc2nc(-c3cccnc3)nc3ccccc23)cn1	inconclusive: 28.2 µM [quencher, side channel, single point]	
O=C(N/N=C/c1cccnc1)C1CCCN(S(=O)(=O)c2ccccc2)C1 (stereo unspecified)	inconclusive: 5.62 µM [quencher, side channel, single point]	

Structure (SMILES)	Potency	activity change, negative = inhibition
CCOC(=O)c1cccc(NC(=O)CCNS(=O)(=O)c2cccc3nonc23)c1	inconclusive: 15.8 µM [quencher, side channel, partial curve]	
O=C(NCc1cccs1)c1ccccc1[N+](=O)[O-]	inconclusive: 39.8 µM [quencher, side channel, single point]	
N/C(=N\OS(=O)(=O)c1cccc([N+](=O)[O-])c1)c1ccncc1	inconclusive: 35.5 µM [quencher, side channel, partial curve]	
COc1ccc(C(=S)NC2CCCCC2)cc1	inactive	
Cc1ccc(C(=O)c2sc3nsc(C)c3c2N)cc1	inconclusive: 1.41 µM [quencher, side channel, full curve]	
O=C(CCc1ccc(Oc2cc([N+](=O)[O-])cc([N+](=O)[O-])c2)cc1)N1CCCCCC1	inconclusive: 25.1 µM [quencher, side channel, partial curve]	
CCc1ccc(NC(=O)CCNS(=O)(=O)c2cccc3nonc23)cc1	inconclusive: 25.1 µM [quencher, side channel, partial curve]	
CC(C)C(=O)Nc1ccc(-c2ccc3nncn3n2)cc1	inconclusive: 15.8 µM [quencher, side channel, partial curve]	
O=[N+]([O-])c1c(NCc2ccccc2)cc(N2CCc3ccccc3C2)c2nonc12	inconclusive: 0.1 µM [fluorescent, side channel, full curve]	
COc1ccccc1CNC(=O)c1cc(=O)c2ccccc2o1	inconclusive: 15.8 µM [quencher, side channel, partial curve]	
Cc1ccc2c(c1)c(C)cc[n+]2Cc1ccccc1		inconclusive: 27.7% [phenotype inactive]
NCCCC[C@@H]1NC(=O)c2cc([N+](=O)[O-])cc(F)c2NCCCC[C@@H](C(N)=O)NC(=O)CNC1=O	inconclusive: 28.2 µM [quencher, side channel, single point]	
O=C(Nc1ccc2c(c1)C(=O)NC2=O)c1cc(Cl)ccc1Cl	inconclusive: 39.8 µM [fluorescent, side channel, single point]	
Cc1ccc(N/N=C(\C#N)C(=N)N2CCCCC2)cc1	inconclusive: 44.7 µM [quencher, side channel, single point]	
CCCC(=O)Nc1ccc(Cl)c(NC(=S)NC(=O)C(C)C)c1	inactive	
CCN1CC2=C(OC(N)=C(C#N)C2c2cccs2)/C(=C/c2cccs2)C1 (stereo unspecified)	inconclusive: 25.1 µM [quencher, side channel, partial curve]	
CCn1c2ccc(F)cc2c2nnc(NN)nc21	inconclusive: 15.8 µM [quencher, side channel, partial curve]	
CCCC(=O)C1=C(O)C(C(=O)OC)C(C)(C)CC1=Nc1cccc([N+](=O)[O-])c1 (stereo unspecified)	inconclusive: 25.1 µM [quencher, side channel, partial curve]	
COc1cccc(/C=N/NC(=O)C(=O)N/N=C/c2cccc(OC)c2OC)c1OC		inactive: -3.08% [at 11.5 µM]
CC(=O)c1c(C)n([O-])c2cc(F)c(F)cc2[n+]1=O	inconclusive: 4.47 µM [quencher, side channel, full curve]	
N#Cc1c(-c2ccco2)ccn(Cc2ccc(F)cc2)c1=O	inconclusive: 25.1 µM [quencher, side channel, partial curve]	

Structure (SMILES)	Potency	activity change, negative = inhibition
FC(F)(F)Sc1ccc(NC(=S)NCc2ccccc2)cc1	inactive	
O=C(CCc1ccccc1)Nc1ccccc1C(=O)NCc1ccco1	inconclusive: 0.794 µM [quencher, side channel, full curve, poor fit]	
O=[N+]([O-])C(/C=C(\Cl)[N+](=O)[O-])=C(N1CCCCC1)N1CCCCC1	inactive	
CC1CN(C(=O)CCC(=O)N2CCCCC2)c2ccccc2O1 (stereo unspecified)	inactive	
Nc1c(S(=O)(=O)c2ccccc2)c2nc3ccccc3nc2n1/N=C/c1cccc(O)c1	inactive	
COc1ccc2c(c1)OCC1=C2CCC2(C)C(=O)CC=C12 (stereo unspecified)	inconclusive: 35.5 µM [quencher, side channel, single point]	
CCCCCSc1nnc(-c2ccccc2N)c(=O)[nH]1	inconclusive: 39.8 µM [quencher, side channel, single point]	
CCOc1ccc(C(=O)c2nc3c(n2O)CCCC3)cc1	inconclusive: 15.8 µM [quencher, side channel, partial curve]	
CCOC(=O)c1c(NC(=O)CSc2nnc(C)c(=O)[nH]2)sc(C)c1-c1ccc(C)cc1	inactive	
CC1CCCCN1C(=O)Cn1cc(/C=C2/C(=O)Nc3ccccc32)c2ccccc21 (stereo unspecified)	inconclusive: 12.6 µM [quencher, side channel, partial curve]	
CCN(CC)c1ccc2cc(-c3nnc(-c4ccccc4)o3)c(=O)oc2c1	inactive	
CCOC(=O)c1cnc2cc3c(cn2c1=O)CCCC3	inconclusive: 17.8 µM [quencher, side channel, partial curve]	
Clc1ccc(OCCCN2CCCCC2)c(Br)c1	inactive	
CCOC(=O)/C(C#N)=C(\O)c1ccc(NC(=O)c2ccc([N+](=O)[O-])cc2)cc1	inconclusive: 22.4 µM [quencher, side channel, partial curve]	
Cc1cccc[n+]1CC(=O)Nc1ccc([N+](=O)[O-])cc1Cl	inconclusive: 14.1 µM [quencher, side channel, partial curve]	
CCN1C(=O)C(O)(C2COC(C)(C)CC2=O)c2ccccc21 (stereo unspecified)	inconclusive: 25.1 µM [quencher, side channel, single point]	
COc1ccc(C(=O)c2cc([N+](=O)[O-])ccc2N2CCCC2)cc1	inconclusive: 14.1 µM [quencher, side channel, partial curve]	
O=C(Nc1cc(Cl)ccc1O)c1snnc1-c1ccccc1	inactive	
O=C(Nc1cc(F)ccc1F)C1CCCN1S(=O)(=O)c1cccc2nsnc12 (stereo unspecified)	inconclusive: 8.91 µM [quencher, side channel, full curve]	
